{
  "source": "the supplement of paper PMC4604168 (melanoma cell lines)",
  "note": "The other results are listed elsewhere or left out. Repeats are few or missing, and single values can be far off.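 Further: cells treated in 1,536-well plates, then fixed and DAPI-stained, with nuclei counted from automated high-throughput microscope images.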",
  "data": [
    {"system": "MEL-HO", "experiment": "cell count relative to DMSO control; melanoma cells; higher = more viable cells", "conditions": "library dose: standard library concentration; 72 h", "units": {"cell count": "%"}, "values": [
      {"smiles": "COc1cc([C@@H]2c3cc4c(cc3[C@@H](O[C@@H]3O[C@@H]5CO[C@@H](C)O[C@H]5[C@H](O)[C@H]3O)[C@H]3COC(=O)[C@H]23)OCO4)cc(OC)c1O", "note": "[etoposide] + NC(=O)Nc1cc(-c2cccc(F)c2)sc1C(=O)N[C@H]1CCCNC1 [AZD7762] (first compound 0.1 µM, partner dose 0.1 µM)", "cell count": 85.7},
      {"smiles": "CCN(CC)CCNC(=O)c1c(C)[nH]c(/C=C2\\C(=O)Nc3ccc(F)cc32)c1C", "note": "[sunitinib] + Nc1ccn([C@@H]2O[C@H](CO)[C@@H](O)C2(F)F)c(=O)n1 [gemcitabine] (first compound 2 µM, partner dose 0.002 µM)", "cell count": 70.8},
      {"smiles": "C[C@]1(O)C[C@@H](c2nc(-c3ccc4ccc(-c5ccccc5)nc4c3)c3c(N)nccn32)C1", "note": "+ O=C(O)c1ccc2c(c1)nc(Nc1cccc(Cl)c1)c1ccncc12 [CX4945] (first compound 2 µM, partner dose 2 µM)", "cell count": 52.5},
      {"smiles": "COc1cc([C@@H]2c3cc4c(cc3[C@@H](O[C@@H]3O[C@@H]5CO[C@@H](C)O[C@H]5[C@H](O)[C@H]3O)[C@H]3COC(=O)[C@H]23)OCO4)cc(OC)c1O", "note": "[etoposide] + CS(=O)(=O)c1ccc(C(=O)Nc2ccc(Cl)c(-c3ccccn3)c2)c(Cl)c1 [vismodegib] (first compound 0.1 µM, partner dose 5 µM)", "cell count": 106},
      {"smiles": "Cn1cnc2c(F)c(Nc3ccc(Br)cc3Cl)c(C(=O)NOCCO)cc21", "note": "[selumetinib] + COC(=O)c1sccc1S(=O)(=O)Nc1ccc(Nc2ccccc2)cc1OC [GSK0660] (first compound 0.075 µM, partner dose 5 µM)", "cell count": 86.8},
      {"smiles": "CCN(CC)CCNC(=O)c1c(C)[nH]c(/C=C2\\C(=O)Nc3ccc(F)cc32)c1C", "note": "[sunitinib] + COc1cc(Nc2ncc(F)c(Nc3ccc4c(n3)NC(=O)C(C)(C)O4)n2)cc(OC)c1OC [Tamatinib] (first compound 2 µM, partner dose 2 µM)", "cell count": 79.6},
      {"smiles": "Cn1cnc2c(F)c(Nc3ccc(Br)cc3Cl)c(C(=O)NOCCO)cc21", "note": "[selumetinib] + CC(C)(C)c1cnc(CSc2cnc(NC(=O)C3CCNCC3)s2)o1 [SNS-032] (first compound 0.075 µM, partner dose 0.05 µM)", "cell count": 74.7},
      {"smiles": "C[C@]1(O)C[C@@H](c2nc(-c3ccc4ccc(-c5ccccc5)nc4c3)c3c(N)nccn32)C1", "note": "+ CCN(CC)CCNC(=O)c1c(C)[nH]c(/C=C2\\C(=O)Nc3ccc(F)cc32)c1C [sunitinib] (first compound 2 µM, partner dose 2 µM)", "cell count": 78.7},
      {"smiles": "COc1cc([C@@H]2c3cc4c(cc3[C@@H](O[C@@H]3O[C@@H]5CO[C@@H](C)O[C@H]5[C@H](O)[C@H]3O)[C@H]3COC(=O)[C@H]23)OCO4)cc(OC)c1O", "note": "[etoposide] + O=C(Nc1cccc(Cl)c1)Nc1ncc(CCNc2ncnc3ccsc23)s1 [SNS314] (first compound 0.1 µM, partner dose 0.004 µM)", "cell count": 70.4},
      {"smiles": "CCN(CC)CCNC(=O)c1c(C)[nH]c(/C=C2\\C(=O)Nc3ccc(F)cc32)c1C", "note": "[sunitinib] + CCCS(=O)(=O)Nc1ccc(F)c(C(=O)c2c[nH]c3ncc(Cl)cc23)c1F [PLX4720] (first compound 2 µM, partner dose 0.4 µM)", "cell count": 86.8},
      {"smiles": "C[C@]1(O)C[C@@H](c2nc(-c3ccc4ccc(-c5ccccc5)nc4c3)c3c(N)nccn32)C1", "note": "+ Nc1cccc2c1CN(C1CCC(=O)NC1=O)C2=O [lenalidomide] (first compound 2 µM, partner dose 5 µM)", "cell count": 97.5},
      {"smiles": "Cn1cnc2c(F)c(Nc3ccc(Br)cc3Cl)c(C(=O)NOCCO)cc21", "note": "[selumetinib] + CCc1ccc(CCOc2ccc(CC3SC(=O)NC3=O)cc2)nc1 [pioglitazone] (first compound 0.075 µM, partner dose 10 µM)", "cell count": 74.6},
      {"smiles": "CCN(CC)CCNC(=O)c1c(C)[nH]c(/C=C2\\C(=O)Nc3ccc(F)cc32)c1C", "note": "[sunitinib] + CCCCCCCCc1ccc(CCC(N)(CO)CO)cc1 [fingolimod] (first compound 2 µM, partner dose 10 µM)", "cell count": 3.01},
      {"smiles": "CCN(CC)CCNC(=O)c1c(C)[nH]c(/C=C2\\C(=O)Nc3ccc(F)cc32)c1C", "note": "[sunitinib] + NCC(=O)Nc1ccc(-n2nc(C(F)(F)F)cc2-c2ccc3c(ccc4ccccc43)c2)cc1 [OSU03012] (first compound 2 µM, partner dose 5 µM)", "cell count": 83.2}
    ]}
  ]
}
